In all, about 44,000 compounds went through this assay and about 340 (0.77%) were called active. Another 5% or so got no clear call; they are omitted. Calls follow the shape of the dose curve; as a rule, active = well fitted inhibition curve with a large enough effect; inconclusive = small, poorly fitted or top-dose-only effect; inactive = flat fitted curve, though single readings scatter. This is one part of the list.
experiment: Acumen qHTS Assay for Inhibitors of the mTORC1 Signaling Pathway in MEF (Tsc2-/-, p53-/-) Cells: Sytravon; conditions: phospho-rpS6 immunofluorescence/PI, 24 h; series mostly up to 38.3 µM; activity change, negative = inhibition: at the top concentration; also: nearly all actives have a fitted effect of over 50% in size;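 as to activity change, negative = inhibition: plate controls were DMSO for no effect and rapamycin for full effect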
Method in brief: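 Cell-based qHTS: Tsc2-/- p53-/- MEF, 24 h cpd, 37 °C; fix/perm, anti-phospho-S6 Alexa-488 + PI; Acumen 488 nm scan; pS6/PI ratio, % positive cells; rapamycin 7.5 nM = inhibition ref; PI count = viability.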
Potency is read from the fitted curve at half-maximal effect.

| Structure (SMILES) | activity change, negative = inhibition | Potency |
| --- | --- | --- |
| Cc1nnc(NC(=O)c2cccn(Cc3cccc([N+](=O)[O-])c3)c2=O)s1 | inactive: -0.835% | – |
| Cc1ccc(NC(=O)N(Cc2ccc3c(c2)OCO3)C2CCN(Cc3ccccc3)CC2)cc1Cl | inactive: 0% | – |
| CCOC(=O)c1ccc(NC(=O)c2cccn(Cc3ccc(C)cc3)c2=O)cc1 | inactive: -0.357% | – |
| CCN(CC)C(=O)c1ccc(NC(=O)Cn2nc(-c3ccc(C)cc3)c3ccccc3c2=O)cc1 | inactive: 7.14% | – |
| Cc1ccc(Cn2cccc(C(=O)Nc3nnc(C)s3)c2=O)cc1 | inactive: -9.48% | – |
| Cc1ccc(-n2c(/C=C/c3cccs3)nc3ccccc3c2=O)cc1C | inactive: 7.71% | – |
| COc1ccc(C)cc1NC(=O)c1cccn(Cc2cccc([N+](=O)[O-])c2)c1=O | inactive: 2.85% | – |
| CCCC12CN3CC(CCC)(CN(C1)C3c1ccccn1)C2=O (centres undefined) | inactive: 3.14% | – |
| COc1cccc(/C=C/c2nc3ccccc3c(=O)n2-c2ccc(Cl)cc2)c1OC | inactive: 3.15% | – |
| O=C(Nc1ccc2c(c1)OCCO2)c1cccn(Cc2cccc(F)c2)c1=O | inactive: -0.0434% | – |
| CCc1ccccc1NC(=O)c1cccn(Cc2ccccc2F)c1=O | inactive: -1.11% | – |
| CCOc1ccc2nc(NC(=O)c3cccn(Cc4ccc(Cl)cc4)c3=O)sc2c1 | inactive: -1.21% | – |
| COc1ccc(-c2nc(CN3C(=O)CN=C(c4ccccc4)c4cc(Cl)ccc43)c(C)o2)cc1 | inactive: -1.41% | – |
| O=C(Nc1ccc(Cl)cc1C(=O)c1ccccc1)c1cc(Cl)cc(Cl)c1 | inactive: -5.13% | – |
| COc1ccc(OC)c(NC(=O)Cn2cc(C(=O)c3ccccc3)c3ccccc32)c1 | inactive: -17.7% | – |
| CSc1ccc(CN2CCN(C(=O)COc3ccc(C)cc3)CC2)cc1 | inactive: 2.64% | – |
| CCOc1ccc2nc(NC(=O)c3cccn(Cc4ccccc4)c3=O)sc2c1 | inactive: -15.3% | – |
| Cn1cc(/C=C/c2nc3ccccc3c(=O)n2-c2ccccc2)c2ccccc21 | inactive: 14% | – |
| O=C(Nc1ccc2c(c1)OCO2)c1cccn(Cc2cccc(F)c2)c1=O | inactive: 2.36% | – |
| COc1ccc(N2CCN(C(=O)C3CCCN(S(=O)(=O)c4ccc5c(c4)CCCN5C(C)=O)C3)CC2)cc1 (centres undefined) | – | active: 7.36 µM |
| Nc1c(C(=O)Nc2ccc(Cl)cc2)sc2nc3c(cc12)N1CCC3CC1 | inactive: -15.4% | – |
| Cc1cccc(-n2c(/C=C/c3c(C)[nH]c4ccccc34)nc3ccccc3c2=O)c1 | inactive: -9.64% | – |
| Nc1c(C(=O)Nc2ccc(Br)cc2F)sc2nc3c(cc12)N1CCC3CC1 | inactive: -1.59% | – |
| COc1cc(C(c2c(O)c3ccccc3oc2=O)c2c(C)n(C)n(-c3ccccc3)c2=O)ccc1OCC(=O)O (centres undefined) | inactive: -0.0215% | – |
| O=C(Nc1ccc(Cl)cc1C(=O)c1ccccc1)c1ccccc1Br | inactive: 7.35% | – |

| Structure (SMILES) | activity change, negative = inhibition | Potency |
| --- | --- | --- |
| Cc1c(Cl)cccc1NC(=O)CN1C(=O)C(C)N=C(c2ccccc2)c2ccccc21 (centres undefined) | inactive: 0.055% | – |
| COc1ccccc1NC(=O)N(Cc1ccc2c(c1)OCO2)C1CCN(Cc2ccccc2)CC1 | inactive: -17.9% | – |
| O=c1c2ccccc2nc(/C=C/c2ccccc2)n1-c1ccccc1F | inactive: 3.26% | – |
| Cc1nnc(NC(=O)c2cccn(Cc3cccc(Cl)c3)c2=O)s1 | inactive: 2.83% | – |
| COc1cc(C(c2c(O)c3ccccc3oc2=O)c2c(C)n(C)n(-c3ccccc3)c2=O)ccc1O (centres undefined) | inactive: 0.533% | – |
| O=C(Nc1ccc(Br)cc1C(=O)c1ccccc1)c1ccccc1 | inactive: -0.367% | – |
| O=S1(=O)N(Cc2ccccc2)CCCN1Cc1ccc(F)cc1Cl | inactive: 3.63% | – |
| Cc1ccc(OCC(=O)Nc2ccc(Cl)cc2C(=O)c2ccccc2)cc1 | inactive: -16% | – |
| COC(=O)c1ccc(NC(=O)c2cccn(Cc3ccccc3C)c2=O)cc1 | inactive: 0.889% | – |
| COc1ccc(OCC(=O)N2CCN(Cc3cccc(OC)c3OC)CC2)cc1 | inactive: 4.04% | – |
| Cc1cc(C)cc(OCC(=O)Nc2ccc(Cl)cc2C(=O)c2ccccc2)c1 | inactive: -7.92% | – |
| Cc1cc(NC(=O)c2cccn(Cc3ccccc3)c2=O)no1 | inactive: 0.0941% | – |
| O=C(CN1C(=O)CN=C(c2ccccc2)c2ccccc21)Nc1cccc(C(F)(F)F)c1 | inactive: -1.17% | – |
| Cc1cccc2sc(NC(=O)c3cccn(Cc4ccccc4)c3=O)nc12 | inactive: -3.4% | – |
| Cc1cccc(C2CC(=O)Oc3c2c(=O)oc2ccccc32)c1 (centres undefined) | inactive: 4.43% | – |
| COc1ccc(CN2CCN(C(=O)COc3ccccc3)CC2)c(OC)c1 | inactive: 0.7% | – |
| CCN(CC)C(=O)c1ccc(NC(=O)CCn2nc(-c3ccc(Cl)cc3)c3ccccc3c2=O)cc1 | inactive: -1.46% | – |
| CCOc1ccc(CN(CCc2ccc3c(c2)OCO3)Cc2cccc(C)c2)cc1 | inactive: 0.133% | – |
| Cc1cc(OCC(=O)N2CCN(CCc3ccccn3)CC2)cc(C)c1Cl | inactive: -7.36% | – |
| CCN(CC)C(=O)c1ccc(NC(=O)CCn2nc(-c3ccc(C)cc3)c3ccccc3c2=O)cc1 | inactive: 4.08% | – |
| Cc1cccc(Cn2cccc(C(=O)Nc3cc(C)on3)c2=O)c1 | inactive: -9.09% | – |
| COc1ccc(-c2nc(CN3C(=O)CN=C(c4ccccc4)c4ccccc43)c(C)o2)cc1 | inactive: -15.4% | – |
| CSc1ccc(CN2CCN(C(=O)COc3cccc(C)c3)CC2)cc1 | inactive: -1.17% | – |
| Cc1cccc(-n2c(/C=C/c3c[nH]c4ccccc34)nc3ccccc3c2=O)c1 | inactive: -4.64% | – |

Source: PubChem BioAssay AID493208 (National Center for Advancing Translational Sciences (NCATS), 2011)
